Laboratory results as given in PubChem BioAssay AID485344 (National Center for Advancing Translational Sciences (NCATS), 2010).
Among all 340,000 compounds or so, about 6,900 (2%) were called active. No stated cut-off is given here; in the data, active means inhibition above about 30%; inactive means below that, where a call was filed. The list shows a part of the results, in another mix than the full data. Entries without a call were filed so in the source.

molecular target: D(2) dopamine receptor (Homo sapiens) (UniProt P14416); assay: HTS Assay for Allosteric Antagonists of the Human D2 Dopamine Receptor: Primary Screen for Antagonists; details: HEK293 TREx D2 cells, calcium flux, dopamine EC80; at 10 µM; stronger effect = higher value; further: 0% is about no effect
In short: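 HEK293 T-REx D2 cells, tet-induced, calcium dye no-wash. Cpd pintool add, 180 s kinetic, then EC80 DA, 180 s kinetic. Ca flux read.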

Sequence of UniProt P14416 (P14416 whole entry, looked up): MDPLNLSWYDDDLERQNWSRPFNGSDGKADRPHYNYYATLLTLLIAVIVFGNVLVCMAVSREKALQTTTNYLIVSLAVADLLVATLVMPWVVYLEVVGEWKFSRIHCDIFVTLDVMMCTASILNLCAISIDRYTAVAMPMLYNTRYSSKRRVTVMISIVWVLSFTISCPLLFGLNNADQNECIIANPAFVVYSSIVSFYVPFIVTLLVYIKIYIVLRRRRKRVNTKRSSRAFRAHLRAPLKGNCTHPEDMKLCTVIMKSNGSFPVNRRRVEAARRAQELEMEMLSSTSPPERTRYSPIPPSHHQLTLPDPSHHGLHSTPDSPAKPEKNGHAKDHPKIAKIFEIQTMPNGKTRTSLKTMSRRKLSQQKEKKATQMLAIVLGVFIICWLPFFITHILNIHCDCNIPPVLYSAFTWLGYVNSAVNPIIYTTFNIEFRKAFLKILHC

| SMILES | inhibition |
| --- | --- |
| O=C(Nc1ccc(F)cc1)[C@H](CSCc1ccccc1)N1Cc2ccccc2C1=O | -4.52% |
| O=C(COC(=O)CCCC1=NS(=O)(=O)c2ccccc2N1)Nc1ccc(Br)cc1 | -9.58% |
| CCc1ccccc1NC(=O)C1CCC(CNS(=O)(=O)c2ccc3c(c2)CC(C)N3C(C)=O)CC1 (stereo not drawn) | -13.1% |
| COc1ccc2nc(NC(=O)c3nc(SCc4ccc(F)cc4)ncc3Cl)sc2c1 | -24.2% |
| Cc1cn2c(=O)c(S(=O)(=O)NCCc3ccccc3)c(C)nc2s1 | 0.66% |
| COc1ccc(-c2oc3ncnc(NCCCN(C)C)c3c2-c2ccc(OC)cc2)cc1 | active: 53.5% |
| Cc1ccc(N2C(=O)CSC23C(=O)N(CC(=O)NC2CCCCC2)c2ccccc23)cc1 (stereo not drawn) | -2.9% |
| CCOc1cc(Cl)c(NC(=O)CC)cc1OCC | active: 70.7% |
| Cc1ccc(C)c(N2CCN(CCCNC(=O)Nc3cc(Cl)ccc3C)CC2)c1 | -8.48% |
| COc1cccc(NC(=O)CCNS(=O)(=O)c2ccc(Br)s2)c1 | -0.665% |
| CCc1nn(CC(=O)N2CCCCC2)c(=O)c2cc3sccc3n12 | -2.08% |
| COc1ccc(CNC(=O)Cc2csc3ccccc23)cc1OC | 10.7% |
| CC(NC(=O)c1cc(Sc2ccc(F)cc2F)nc2ccccc12)c1ccccc1 (stereo not drawn) | 0.667% |
| COc1cc(Br)c(/C=C(\C#N)c2nc3ccccc3[nH]2)cc1OC | -3.45% |
| CCCCOc1ccc(CNC(=O)C2CCN(c3nnc(-n4cccc4CNc4ccc(C)cc4)s3)CC2)cc1 | -3.18% |
| COc1ccc2c(c1)CCc1c(C(=O)Nc3cc(C)ccc3O)noc1-2 | 9.1% |
| COc1ccccc1NC(=O)Cc1c(C(=O)O)[nH]c2ccc(Cl)cc12 | 2.79% |
| Cc1ccc(-c2nc3cc(C(C)C)ccc3o2)cc1NC(=O)c1cccs1 | 5.18% |
| Cc1cccc(NC(=O)CSc2nc3ccc(NC(=O)c4ccco4)cc3s2)c1 | 7.71% |
| COCCn1c(C)cc(O)c(C(c2ccccc2)N2CCN(C)CC2)c1=O (stereo not drawn) | -18.8% |
| O=C1C(Cl)=C(N2CCN(Cc3ccccc3)CC2)C(=O)N1c1ccccc1 | active: 36.7% |
| COC(=O)c1cccc(Nc2c(-c3ccc(O)c(OC)c3)nc3nc[nH]n23)c1 | 8.32% |
| CCOc1ccc(-c2c(C)nn3c(C)c(C(=O)Nc4ccccc4C(=O)OC)cnc23)cc1OCC | -3.82% |
| CCOc1ccc(NC(=O)C2Cc3ccccc3N2C(=O)c2ccccc2)cc1 (stereo not drawn) | 0.504% |

| SMILES | inhibition |
| --- | --- |
| Cc1nc2cc(-c3ccccc3)nn2c(C)c1CCC(=O)N1CCN(c2ccccn2)CC1 | active: 36.3% |
| CC1CCc2cc(F)ccc2N1S(=O)(=O)c1ccc(Cl)nc1 (stereo not drawn) | active: 35.4% |
| Cc1ccccc1OCc1nnc(SCc2cc(=O)c3ccccc3[nH]2)n1C | -1.91% |
| CCOC(=O)C1=C(CS(=O)(=O)c2c(C)cc(C)cc2C)NC(=O)NC1c1cccc(OC)c1 (stereo not drawn) | -2.9% |
| COc1ccccc1N1CCN(C(CNC(=O)C(=O)NCCCN(C)C)c2cccnc2)CC1 (stereo not drawn) | 6.69% |
| COc1ccc(N(CC(=O)NCCc2cccc(C)c2)S(=O)(=O)c2c(C)nn(C)c2C)cc1 | -3.89% |
| O=C1CC(c2ccccc2C(F)(F)F)c2c(c3ccccc3[nH]c2=O)O1 (stereo not drawn) | -13.1% |
| Cc1ccc2nc(-c3ccc(O)cc3)c(Nc3ccc4c(c3)OCO4)n2c1 | -19.6% |
| CCn1nnnc1NCc1ccc(Cl)cc1 | active: 46.7% |
| CC(C)N(Cc1ccccc1)C(=O)CCS(=O)(=O)c1cc2c(cc1Cl)NC(=O)CO2 | -1.61% |
| Cc1nn(C)c(C)c1S(=O)(=O)N1CCC(C(=O)NCCC2=CCCCC2)CC1 | active: 30.3% |
| Cc1cc(C)n2nc(SCC(=O)Nc3ccccc3)nc2n1 | 6.47% |
| CCc1ccc(NC(=O)CSc2nc3n[nH]c(C)c3c(=N)n2-c2ccccc2C)cc1 | 20% |
| COc1cccc(C(=O)Nc2ccccc2OCc2cc(=O)n3cc(C)ccc3n2)c1 | -7.92% |
| CCCNC(=O)C1CCN(S(=O)(=O)c2ccc3c(c2)CCCN3C(C)=O)CC1 | -11.1% |
| Cc1oc(-c2ccc(Cl)cc2)nc1CS(=O)CC(=O)NCc1ccc(Cl)cc1 (stereo not drawn) | -7.84% |
| CC1=C(C(N)=O)C(c2cccc(Br)c2)n2nc(SCc3ccccc3)nc2N1 (stereo not drawn) | 1.54% |
| O=C(Nc1cccc(C(=O)N2CCN(c3ccc(Cl)cc3)CC2)c1)c1nsc2ccccc12 | 5.11% |
| O=C(NCc1cccnc1)C1CCN(Cc2cc3ccccc3n2Cc2cccc(Cl)c2)CC1 | 12.5% |
| Cc1cc2nc(C3CCCN(C(=S)Nc4ccccc4)C3)[nH]c2cc1C (stereo not drawn) | active: 31% |
| CCCCc1nnc(SCc2cc(=O)c3cc(C(=O)OCC)ccc3[nH]2)n1C | 5.24% |
| O=C(CSc1cn(CCNC(=O)c2c(F)cccc2F)c2ccccc12)Nc1ccc2c(c1)OCCO2 | -10.4% |
| CC(C)CC(NS(=O)(=O)c1ccc2c(c1)oc(=O)n2C)C(=O)NCCc1ccc(Cl)cc1 (stereo not drawn) | -6.1% |
| Cc1cc(C)cc(NS(=O)(=O)c2ccc3[nH]cc(C(=O)N4CCCC4)c(=O)c3c2)c1 | -1.92% |
